{
  "source": "paper PMC8102337",
  "about": "(Nature chemistry, 2021)",
  "proteins": {"B1": {"name": "HSP27(gT184), semisynthetic HSP27 with O-GlcNAc at Thr184 (C137A) (natural protein)", "chain": "not shown", "modifications": "O-GlcNAc at Thr184"}, "B2": {"name": "HSP27, unmodified, semisynthetic (C137A) (natural protein)", "chain": "not shown"}},
  "target": "the molecule itself",
  "experiment": "SEC-MALS",
  "data": [
    {"protein": "B1", "values": [
      {"measurement": "stoichiometry N", "result": "~47", "unit": "monomers"}
    ]},
    {"protein": "B2", "values": [
      {"measurement": "stoichiometry N", "result": "~28", "unit": "monomers"}
    ]}
  ]
}
